{"source": "the supplement of paper PMC8728848", "binders": {"B1": {"name": "UEA-I (Ulex europaeus), P22972 (protein)", "chain": "SDDLSFKFKNFSQNGKDLSFQGDASVIETGVLQLNKVGNNLPDETGGIARYIAPIHIWNCNTGEVASFITSFSFFMETSANPKAATDGLTFFLAPPDSPLRRAGGYFGLFEDTKDNDSSYQTVAVEFDTIGSPVNFDDPGFPHIGIDVNRVKSINAERWNKRYGLNNVANVEIIYEASSKTLTASLTYPSDQTSISVTSIVDLKEILPEWVSVGFSGGTYIGRQATHEVLNWYFTSNLIN"}}, "test_in_all_cases": "glycan array binding signal (z-score within array); higher = stronger binding", "conditions_in_all_cases": "glycan notation: IUPAC condensed, linker removed", "key": {"Glc(b1-6)Glc": {"target": "Glc(b1-6)Glc", "summary_of_the_method": "(§1)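 The binding signal is a Z-score computed within each array. Data were drawn from 3228 arrays in the Consortium for Functional Glycomics database, restricted to those with a known protein sequence. Scores were averaged over arrays of the same protein sequence at different concentrations or buffers, and over linkers, and negative values can be taken as non-binding.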"}, "GlcA(b1-3)Gal": {"target": "GlcA(b1-3)Gal", "summary_of_the_method": "as §1"}, "GlcA(b1-3)GlcNAc": {"target": "GlcA(b1-3)GlcNAc", "summary_of_the_method": "as §1"}, "GlcA(b1-6)Gal": {"target": "GlcA(b1-6)Gal", "summary_of_the_method": "as §1"}, "[1]": {"target": "GlcNAc(a1-3)Gal(b1-4)GlcNAc", "summary_of_the_method": "as §1"}, "[2]": {"target": "GlcNAc(a1-4)Gal(b1-3)GlcNAc", "summary_of_the_method": "as §1"}, "[3]": {"target": "GlcNAc(a1-4)Gal(b1-4)GalNAc", "summary_of_the_method": "as §1"}, "[4]": {"target": "GlcNAc(a1-4)Gal(b1-4)GlcNAc", "summary_of_the_method": "as §1"}, "[5]": {"target": "GlcNAc(a1-4)Gal(b1-4)GlcNAc(b1-3)Gal(b1-4)Glc", "summary_of_the_method": "as §1"}, "[6]": {"target": "GlcNAc(a1-4)Gal(b1-4)GlcNAc(b1-3)Gal(b1-4)GlcNAc", "summary_of_the_method": "as §1"}, "[7]": {"target": "GlcNAc(a1-4)Gal(b1-4)GlcNAc(b1-3)Gal(b1-4)GlcNAc(b1-3)Gal(b1-4)GlcNAc", "summary_of_the_method": "as §1"}, "[8]": {"target": "GlcNAc(a1-4)Gal(b1-4)GlcNAc(b1-3)Gal(b1-4)[Fuc(a1-3)]GlcNAc(b1-3)Gal(b1-4)[Fuc(a1-3)]GlcNAc", "summary_of_the_method": "as §1"}, "[9]": {"target": "GlcNAc(a1-6)Gal(b1-4)GlcNAc", "summary_of_the_method": "as §1"}, "[10]": {"target": "GlcNAc(b1-2)Gal(b1-3)GalNAc", "summary_of_the_method": "as §1"}, "[11]": {"target": "GlcNAc(b1-2)Man(a1-3)[GlcNAc(b1-2)Man(a1-6)]Man(b1-4)GlcNAc(b1-4)GlcNAc", "summary_of_the_method": "as §1"}, "[12]": {"target": "GlcNAc(b1-2)Man(a1-3)[GlcNAc(b1-2)Man(a1-6)]Man(b1-4)GlcNAc(b1-4)[Fuc(a1-6)]GlcNAc", "summary_of_the_method": "as §1"}, "[13]": {"target": "GlcNAc(b1-2)Man(a1-3)[GlcNAc(b1-4)][GlcNAc(b1-2)Man(a1-6)]Man(b1-4)GlcNAc(b1-4)GlcNAc", "summary_of_the_method": "as §1"}, "[14]": {"target": "GlcNAc(b1-2)[GlcNAc(b1-4)]Man(a1-3)[GlcNAc(b1-2)Man(a1-6)]Man(b1-4)GlcNAc(b1-4)GlcNAc", "summary_of_the_method": "as §1"}, "[15]": {"target": "GlcNAc(b1-2)[GlcNAc(b1-4)]Man(a1-3)[GlcNAc(b1-4)][GlcNAc(b1-2)Man(a1-6)]Man(b1-4)GlcNAc(b1-4)GlcNAc", "summary_of_the_method": "as §1"}, "[16]": {"target": "GlcNAc(b1-2)[GlcNAc(b1-4)]Man(a1-3)[GlcNAc(b1-4)][GlcNAc(b1-2)[GlcNAc(b1-6)]Man(a1-6)]Man(b1-4)GlcNAc(b1-4)GlcNAc", "summary_of_the_method": "as §1"}, "[17]": {"target": "GlcNAc(b1-2)[GlcNAc(b1-6)]Man(a1-6)[GlcNAc(b1-2)Man(a1-3)]Man(b1-4)GlcNAc(b1-4)GlcNAc", "summary_of_the_method": "as §1"}, "[18]": {"target": "GlcNAc(b1-2)[GlcNAc(b1-6)]Man(a1-6)[GlcNAc(b1-2)Man(a1-3)][GlcNAc(b1-4)]Man(b1-4)GlcNAc(b1-4)GlcNAc", "summary_of_the_method": "as §1"}, "GlcNAc(b1-3)Gal": {"target": "GlcNAc(b1-3)Gal", "summary_of_the_method": "as §1"}, "[19]": {"target": "GlcNAc(b1-3)Gal(b1-3)GalNAc", "summary_of_the_method": "as §1"}, "GlcNAc(b1-3)Gal(b1-4)Glc": {"target": "GlcNAc(b1-3)Gal(b1-4)Glc", "summary_of_the_method": "as §1"}, "[20]": {"target": "GlcNAc(b1-3)Gal(b1-4)GlcNAc", "summary_of_the_method": "as §1"}, "[21]": {"target": "GlcNAc(b1-3)Gal(b1-4)GlcNAc(b1-3)Gal(b1-4)GlcNAc", "summary_of_the_method": "as §1"}, "GlcNAc(b1-3)GalNAc": {"target": "GlcNAc(b1-3)GalNAc", "summary_of_the_method": "as §1"}, "GlcNAc(b1-3)Man": {"target": "GlcNAc(b1-3)Man", "summary_of_the_method": "as §1"}, "[22]": {"target": "GlcNAc(b1-3)[GlcNAc(b1-4)][GlcNAc(b1-6)]GlcNAc", "summary_of_the_method": "as §1"}, "[23]": {"target": "GlcNAc(b1-3)[GlcNAc(b1-6)]Gal(b1-4)GlcNAc", "summary_of_the_method": "as §1"}, "[24]": {"target": "GlcNAc(b1-3)[GlcNAc(b1-6)]GalNAc", "summary_of_the_method": "as §1"}, "[25]": {"target": "GlcNAc(b1-4)Gal(b1-4)GlcNAc", "summary_of_the_method": "as §1"}, "GlcNAc(b1-4)GlcNAc": {"target": "GlcNAc(b1-4)GlcNAc", "summary_of_the_method": "as §1"}, "[26]": {"target": "GlcNAc(b1-4)GlcNAc(b1-4)GlcNAc", "summary_of_the_method": "as §1"}, "[27]": {"target": "GlcNAc(b1-4)GlcNAc(b1-4)GlcNAc(b1-4)GlcNAc(b1-4)GlcNAc", "summary_of_the_method": "as §1"}, "[28]": {"target": "GlcNAc(b1-4)GlcNAc(b1-4)GlcNAc(b1-4)GlcNAc(b1-4)GlcNAc(b1-4)GlcNAc", "summary_of_the_method": "as §1"}, "[29]": {"target": "GlcNAc(b1-4)[GlcNAc(b1-6)]GalNAc", "summary_of_the_method": "as §1"}}, "note": "Some of the results follow.", "data": [{"binder": "B1", "values": [{"measurement": "glycan array binding signal (z-score)", "setting": "Glc(b1-6)Glc", "result": -0.185}, {"measurement": "glycan array binding signal (z-score)", "setting": "GlcA(b1-3)Gal", "result": -0.18}, {"measurement": "glycan array binding signal (z-score)", "setting": "GlcA(b1-3)GlcNAc", "result": -0.167}, {"measurement": "glycan array binding signal (z-score)", "setting": "GlcA(b1-6)Gal", "result": -0.183}, {"measurement": "glycan array binding signal (z-score)", "setting": "[1]", "result": 0.042}, {"measurement": "glycan array binding signal (z-score)", "setting": "[2]", "result": -0.177}, {"measurement": "glycan array binding signal (z-score)", "setting": "[3]", "result": -0.175}, {"measurement": "glycan array binding signal (z-score)", "setting": "[4]", "result": -0.164}, {"measurement": "glycan array binding signal (z-score)", "setting": "[5]", "result": -0.152}, {"measurement": "glycan array binding signal (z-score)", "setting": "[6]", "result": 0.148}, {"measurement": "glycan array binding signal (z-score)", "setting": "[7]", "result": -0.063}, {"measurement": "glycan array binding signal (z-score)", "setting": "[8]", "result": -0.157}, {"measurement": "glycan array binding signal (z-score)", "setting": "[9]", "result": -0.176}, {"measurement": "glycan array binding signal (z-score)", "setting": "[10]", "result": -0.183}, {"measurement": "glycan array binding signal (z-score)", "setting": "[11]", "result": -0.183}, {"measurement": "glycan array binding signal (z-score)", "setting": "[12]", "result": -0.183}, {"measurement": "glycan array binding signal (z-score)", "setting": "[13]", "result": -0.175}, {"measurement": "glycan array binding signal (z-score)", "setting": "[14]", "result": -0.182}, {"measurement": "glycan array binding signal (z-score)", "setting": "[15]", "result": -0.174}, {"measurement": "glycan array binding signal (z-score)", "setting": "[16]", "result": -0.173}, {"measurement": "glycan array binding signal (z-score)", "setting": "[17]", "result": -0.186}, {"measurement": "glycan array binding signal (z-score)", "setting": "[18]", "result": -0.171}, {"measurement": "glycan array binding signal (z-score)", "setting": "GlcNAc(b1-3)Gal", "result": -0.183}, {"measurement": "glycan array binding signal (z-score)", "setting": "[19]", "result": -0.188}, {"measurement": "glycan array binding signal (z-score)", "setting": "GlcNAc(b1-3)Gal(b1-4)Glc", "result": -0.183}, {"measurement": "glycan array binding signal (z-score)", "setting": "[20]", "result": -0.184}, {"measurement": "glycan array binding signal (z-score)", "setting": "[21]", "result": -0.182}, {"measurement": "glycan array binding signal (z-score)", "setting": "GlcNAc(b1-3)GalNAc", "result": -0.184}, {"measurement": "glycan array binding signal (z-score)", "setting": "GlcNAc(b1-3)Man", "result": -0.177}, {"measurement": "glycan array binding signal (z-score)", "setting": "[22]", "result": -0.181}, {"measurement": "glycan array binding signal (z-score)", "setting": "[23]", "result": -0.167}, {"measurement": "glycan array binding signal (z-score)", "setting": "[24]", "result": -0.178}, {"measurement": "glycan array binding signal (z-score)", "setting": "[25]", "result": -0.181}, {"measurement": "glycan array binding signal (z-score)", "setting": "GlcNAc(b1-4)GlcNAc", "result": -0.026}, {"measurement": "glycan array binding signal (z-score)", "setting": "[26]", "result": 0.24}, {"measurement": "glycan array binding signal (z-score)", "setting": "[27]", "result": 0.079}, {"measurement": "glycan array binding signal (z-score)", "setting": "[28]", "result": 0.137}, {"measurement": "glycan array binding signal (z-score)", "setting": "[29]", "result": -0.181}]}]}
